Results: PubChem BioAssay AID1030 (National Center for Advancing Translational Sciences (NCATS), 2008)
The whole screen tested about 220,000 compounds, of which about 16,000 (7.3%) were called active. Inconclusive results, whose numbers are uncertain, are shown with a selection of clear calls. Calls come from the whole dose curve; as a rule, active = well fitted inhibition curve with a large enough effect (not every such curve was filed as active); inconclusive = small, poorly fitted or top-dose-only effect, or another doubt; inactive = no such curve, though single readings can be large or run the other way. No potency is given beside an inconclusive call; the fits are too rough.

These compounds were tested against Aldehyde dehydrogenase 1A1 (Homo sapiens) (UniProt P00352) (assay: qHTS Assay for Inhibitors of Aldehyde Dehydrogenase 1 (ALDH1A1)). Conditions: Purified ALDH1A1, NADH fluorescence, propionaldehyde substrate; series mostly up to 75.3 µM.
Sequence of UniProt P00352 (P00352 whole entry, looked up): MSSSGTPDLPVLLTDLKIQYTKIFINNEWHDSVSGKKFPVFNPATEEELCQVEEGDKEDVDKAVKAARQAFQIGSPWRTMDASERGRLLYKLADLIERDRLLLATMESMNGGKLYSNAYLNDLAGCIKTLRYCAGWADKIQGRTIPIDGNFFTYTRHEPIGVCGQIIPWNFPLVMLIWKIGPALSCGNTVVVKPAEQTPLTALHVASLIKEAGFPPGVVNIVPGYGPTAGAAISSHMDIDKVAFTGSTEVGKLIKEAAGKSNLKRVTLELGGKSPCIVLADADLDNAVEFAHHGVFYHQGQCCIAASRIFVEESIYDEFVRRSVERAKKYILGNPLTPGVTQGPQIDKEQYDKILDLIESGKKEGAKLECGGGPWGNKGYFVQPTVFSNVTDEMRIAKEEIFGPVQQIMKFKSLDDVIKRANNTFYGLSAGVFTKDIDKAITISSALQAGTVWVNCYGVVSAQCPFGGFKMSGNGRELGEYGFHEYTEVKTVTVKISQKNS
Potency is the fitted concentration of half-maximal effect; tags give direction and shape of the fitted curve.

| SMILES | Potency |
| --- | --- |
| CCOC(=O)c1c(C)[nH]c(C=C2C(=O)CCCC2=O)c1O | inactive |
| O=C(Nc1nnc(-c2ccncc2)o1)c1ccccc1 | inconclusive [inhibitor, partial curve] |
| CN(CCc1ccccn1)C(=O)CCC1CCCN(C(=O)c2n[nH]c3c2CCCC3)C1 (configuration not stated) | inactive |
| N=C1C(c2nc3ccccc3s2)=C(O)CN1C1CCCCC1 | inactive |
| COC(=O)Cc1c(C)c2ccc(OCC(=O)NCc3ccc4c(c3)OCO4)cc2oc1=O | inconclusive [inhibitor, partial curve] |
| COc1cccc(-c2nc(CS(=O)(=O)CC(=O)NCCCOC(C)C)c(C)o2)c1 | inactive |
| CCC12CCCN3CCC4(C(=C(C(=O)OC)C1)Nc1ccccc14)C32 (configuration not stated) | active: 20 µM |
| O=C(c1ccc2c(c1)N(Cc1ccccc1)C(=O)c1ccccc1S2)N1CCCC1 | inconclusive [inhibitor, single point] |
| COc1ccc(C2Nc3ccccc3C(=O)N2c2ccc(C)cc2)cc1COc1ccccn1 (configuration not stated) | inconclusive [inhibitor, single point] |
| COc1ccc(N2C(=O)CC(Sc3nc(C)c4c(n3)CCCC4)C2=O)cc1 (configuration not stated) | inconclusive [inhibitor, single point] |
| C=CC[C@@H]1C=C[C@H](O/N=C/[C@@H](NS(=O)(=O)c2ccc(C)cc2)[C@H](C)/C=C/CC(=O)OC)[C@@H](CO)O1 | inconclusive [inhibitor, single point] |
| CCOc1cc(NS(=O)(=O)CC)c(OCC)cc1NC(=O)c1ccco1 | inconclusive [inhibitor, single point] |
| COc1cc(Nc2ccc(C)cc2)c([N+](=O)[O-])nc1[N+](=O)[O-] | inconclusive [inhibitor, partial curve] |
| COc1ccc(C2NC(=O)c3sc(=S)n(-c4ccccc4)c3N2)cc1 (configuration not stated) | inactive |
| O=c1cc(-c2ccccc2O)oc2ccc3ccccc3c12 | inactive |
| CCCSc1nsc(NC(=O)c2cccnc2OCC)n1 | inconclusive [inhibitor, single point] |
| O=C(CN(Cc1ccc(F)cc1)S(=O)(=O)c1ccc(S(=O)(=O)N2CCOCC2)cc1)Nc1ccccc1 | inactive |
| COc1ccc(N2C(=O)C(CC(N)=O)N(NC(=O)CCc3ccccc3)C2=O)cc1 (configuration not stated) | inactive |
| COc1cccc(/C=N/Nc2nc3ccccc3n3cnnc23)c1 | inactive |
| COC(=O)c1cc(NC(=O)CC2SC(=Nc3ccccc3)N(CCc3c[nH]c4ccccc34)C2=O)cc(C(=O)OC)c1 (configuration not stated) | inactive |
| Cc1c(C(=O)O)cnc2c([N+](=O)[O-])cnn12 | inactive |
| COc1ccc(-n2c(Cc3cccn3C)nnc2SCC(=O)Nc2ccc3c(c2)OCO3)cc1 | active: 14.1 µM |
| CN1CCN(c2ncc3nc(-c4ccccc4)c(=O)n(C)c3n2)CC1 | inconclusive [inhibitor, partial curve] |
| Cc1nc(N)nc2ccccc12 | inconclusive [inhibitor, single point] |

| SMILES | Potency |
| --- | --- |
| CCOC(=O)c1cnn2c(C(F)(F)F)cc(-c3cn(C)nc3C)nc12 | inconclusive [inhibitor, partial curve] |
| CC(=O)C(C)Oc1cc(C)cc2oc(=O)c(C)c(C)c12 (configuration not stated) | inconclusive [inhibitor, partial curve] |
| O=C(Nc1ccc(Cl)cc1)c1cc2nc(C3CC3)cc(C(F)(F)F)n2n1 | inconclusive [inhibitor, single point] |
| Cc1cc(-c2ccccc2)nc2cc(C(=O)NCc3ccco3)nn12 | inconclusive [inhibitor, single point] |
| O=C1C2C3CCC(C3)C2C(=O)N1Cc1ccco1 (configuration not stated) | active: 11.9 µM |
| COCCNc1c([N+](=O)[O-])c(=O)n(-c2ccccc2)c2ccccc12 | inconclusive [inhibitor, single point] |
| CC1CN(Cc2csc(-c3ccc(Cl)cc3)n2)CC(C)O1 (configuration not stated) | active: 15.8 µM |
| COCCNC(=O)c1nn(-c2cc(OC)cc(OC)c2)c(=O)c2ccccc12 | inconclusive [inhibitor, single point] |
| O=C1COc2ccc(N3C(=O)c4ccccc4C3=O)cc2N1 | inactive |
| COc1cccc(/C(C)=N/NS(=O)(=O)c2ccc(Cl)cc2)c1 | inconclusive [inhibitor, single point] |
| Cc1nn(-c2ccc(F)cc2)c2sc(C(=O)N3CCCCCC3)cc12 | active: 35.5 µM |
| CC(C)(Oc1ccc(Cl)cc1)C(=O)N1CCN(c2ccccn2)CC1 | inconclusive [inhibitor, partial curve] |
| CCCN(N=Nc1cccc([N+](=O)[O-])c1)c1cccc([N+](=O)[O-])c1 | inconclusive [inhibitor, full curve] |
| CC(C)NC[C@H]1CCc2cc(CO)c([N+](=O)[O-])cc2N1 | inactive |
| O=C1C2ON(c3ccc(Cl)cc3)C(c3ccco3)C2C(=O)N1c1ccccc1 (configuration not stated) | inconclusive [inhibitor, single point] |
| Cc1cccc(-n2c(-c3csc(C)c3C)n[nH]c2=S)c1 | inactive |
| COc1ccc(CC(NC(C)=O)C(=O)NC2CCN(c3nnnn3-c3ccccc3)CC2)cc1OC (configuration not stated) | active: 10 µM |
| CCOC(=O)C1CCN(c2nc3ccccc3nc2C(C#N)C(=O)NCCc2ccccc2)CC1 (configuration not stated) | inconclusive [inhibitor, partial curve] |
| Cc1nnc(SCC(=O)N2CCN(C(=O)c3ccco3)CC2)n1-c1ccccc1 | active: 28.2 µM |
| COc1ccc(OCC(=O)NC(=S)N2CCCc3ccccc32)cc1 | active: 8.91 µM |
| O=C(NC1C2CC3CC(C2)CC1C3)c1ccc(N2CCNCC2)c([N+](=O)[O-])c1 (configuration not stated) | inconclusive [inhibitor, partial curve] |
| Cc1cccc(N2CC(C(=O)OCC(=O)c3ccc(OC(=O)c4cccs4)cc3)CC2=O)c1C (configuration not stated) | inactive |
| FC(F)(F)c1cc(-c2ccco2)nc(-n2nnc3ccccc32)n1 | inconclusive [inhibitor, partial curve] |
